Our source for the IC50 (nM), C2C12 pMARE-luc assay and Kd values is patent US20100330072A1 (published 2010).

Where a chain is given by its changes, count along the chain named.

Experiment [1] deals with T1, recombinant mature myostatin (human, produced in E. coli) (human) (UniProt O14793).
T1 sequence (looked up): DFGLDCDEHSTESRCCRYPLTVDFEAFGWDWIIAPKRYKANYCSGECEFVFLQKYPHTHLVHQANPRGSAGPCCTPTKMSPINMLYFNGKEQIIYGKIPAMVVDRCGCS
As to the kind of experiment: cell-based or functional assay.

Experiment [2] concerns the target T2, recombinant mature myostatin (human, produced in E. coli) (human, UniProt O14793 267-375).
T2 construct: mature; also called GDF-8
T2 sequence (looked up): T1 sequence (looked up)
As to the kind of experiment: BIAcore, myostatin immobilized on CM5 chip. A general note: In SPR one partner is held on a chip, and binding of the other changes the refractive index at the surface.

B1: mL2-7 peptibody (Fc fusion)
chain: MGAQRMEMLESLFELLKEIVPMSKAGLEGGGGG[letters of human IgG1 Fc left out]
Consider B1, for which, in experiment [1], the IC50 (nM), C2C12 pMARE-luc assay was found to be 90.2 nM.

B2: mL2-9 peptibody (Fc fusion)
chain: B1 chain with R5Q, M8L, E10D, M22K, K24Q, A25P, G26A
For B2, the IC50 (nM), C2C12 pMARE-luc assay in experiment [1] worked out at 106 nM.

B3: Myostatin-TN12-34 peptibody (Fc fusion)
chain: MAHWCEQGPWRYGNICMAYGGGGG[letters of human IgG1 Fc left out]GGGGGAHWCEQGPWRYGNICMAY
For the molecule B3, the IC50 (nM), C2C12 pMARE-luc assay in experiment [1] was determined as 30 nM.

B4: Myostatin-2xTN8-19 kc peptibody (Fc fusion)
chain: [letters of human IgG1 Fc left out]GSGSATGGSGSTASSGSGSATGQGHCTRWPWMCPPYGSGSATGGSGSTASSGSGSATGQGHCTRWPWMCPPY
notes: Conflict not resolved; also called 2xmTN8-19 (parent)
What is called Kd is the equilibrium constant for the complex coming apart. For B4, the equilibrium dissociation constant (Kd) in experiment [2] was approximately 29 nM.

B5: Myostatin-Linear-20 peptibody (Fc fusion)
chain: MYREMSMLEGLLDVLERLQHYGGGGG[letters of human IgG1 Fc left out]
Consider B5, for which the IC50 (nM), C2C12 pMARE-luc assay in experiment [1] amounted to 11 nM.
